These results are taken from PubChem BioAssay AID463173 (ICCB-Longwood Screening Facility, Harvard Medical School, 2010).

In all, about 52,000 compounds went through this assay and about 4,300 (8.3%) were called active. No stated cut-off is given here; in the data, active means survival mostly below about 52% (no sharp cut-off); inactive means mostly above about 56%. Some of the results follow.

The test system of the assay is DeltatarO mutant. Put plainly: growth inhibition of S. aureus wild type versus tarO mutant, primary screen, teichoic acid synthesis inhibitors, RN4220, OD600 (AID 463173). Particulars: OD600, 18 h, hits give low values, screened at 18.75 µg/mL (by protocol).
Consider `N#Cc1c(C(F)(F)F)cc(-c2cccs2)nc1SCC(=O)Nc1cccc(Cl)c1`, for which the survival is inactive: 58%.
As to `COc1ccc(-c2onc(C)c2C)cc1S(=O)(=O)N(C)Cc1ccccc1`, the survival was inactive: 109%.
For `Cc1cc(-n2ccnc(NCCc3ccc(S(N)(=O)=O)cc3)c2=O)ccc1Br`, the survival is inactive: 94%.
With `CCOc1ccc(N2CC(NC(=O)C3CCCC3)CC2=O)cc1` (stereo not drawn), the survival was inactive: 83%.
As to `CCCNC(=O)C1CCC(Cn2c(=O)c3sccc3n(CC(=O)NCc3cccc(OC)c3OC)c2=O)CC1` (stereo not drawn), the survival is inactive: 133%.
For the compound `Cc1ccc(C)c(N2CCN(CCCNC(=O)c3ccc4nc(CCc5ccccc5)oc4c3)CC2)c1`, the survival is inactive: 87%.
For `COc1cccc(N2CC(NC(=O)c3cc(Cl)ccc3OC)CC2=O)c1` (stereo not drawn), the survival is inactive: 64%.
As to `Cc1ccc(C(=O)N/C(=C\c2ccc(Cl)cc2)C(=O)NC2CCCCC2)cc1`, the survival was inactive: 86%.
Turning to `COc1ccc(OC)c(NS(=O)(=O)c2ccc(N3CCCCS3(=O)=O)cc2)c1`, the survival was inactive: 101%.
For the compound `COCCCNC(=O)c1ccc(Cn2c(=O)c3ccccc3n(Cc3c(C)cc(C)cc3C)c2=O)cc1`, the survival was inactive: 107%.
Take `C=CCN1C(=O)C2C(C(=O)NCc3ccccc3)C3C=CC2(O3)C1C(=O)NC1CCCC1` (stereo not drawn): the survival was inactive: 64%.
For `CCN1CCN(C(c2ccc(SC)cc2)c2c(O)cc(C)n(CCOC)c2=O)CC1` (stereo not drawn) the value was inactive: 94%; for `CCCCN(CC)C(=O)C1CCCN(c2ncnc3onc(C)c23)C1` (stereo not drawn), inactive: 83%.
On to `Cc1ccccc1C(=O)N(Cc1sccc1C)C1CCS(=O)(=O)C1` (stereo not drawn), for which the survival was inactive: 76%.
With `COc1ccc(CCNC(=O)c2ccc(Cn3c(=O)c4ccccc4n(CC(=O)C(C)(C)C)c3=O)cc2)cc1OC`, the survival was inactive: 86%.
As for `COc1cc(NC(=O)CCn2nc(C)c(S(=O)(=O)N3CCCCC3)c2C)cc(OC)c1OC`, the survival was inactive: 124%.
`COc1ccccc1NC(=O)C1=C(C)Nc2c(C(=O)Nc3cccc(C)c3)cnn2C1c1ccccc1Cl` (stereo not drawn): the survival is active: -5%.
Then `CC1CCCCN1CCCNC(=O)CN1C(=O)c2cccnc2Oc2ccccc21` (stereo not drawn), with inactive: 105%.
Then `COc1ccc(Cl)cc1NC(=O)c1c(NCc2cccnc2)sc2c1CCC(C)C2` (stereo not drawn), with inactive: 67%.
With `N#CC(C#N)=Cc1cn(CCOc2ccc3c(c2)OCO3)c2ccccc12`, the survival is inactive: 98%.
For `CCc1ccc(C2C(C(=O)Nc3ccccc3C)=C(C)Nc3nc(SCc4cccc(OC)c4)nn32)cc1` (stereo not drawn) the value was inactive: 124%; for `CC(=O)c1ccc(NC(=O)CSc2nc(=O)n(Cc3ccncc3)c3c2CCC3)cc1`, inactive: 89%; for `Cc1ccc(N2CCN(C(=O)c3cn(C)c4ccc(S(=O)(=O)N(C)C)cc4c3=O)CC2C)cc1` (stereo not drawn), inactive: 137%.
On to `CCS(=O)(=O)c1ncc(N(Cc2ccco2)Cc2ccccc2F)c(C(=O)Nc2cccc(Cl)c2)n1`, for which the survival is inactive: 60%.
Take `O=C(Cn1c(=O)nc(-c2ccccc2)c2ccccc21)NCc1ccccc1Cl`: the survival is inactive: 67%.
Turning to `CCOC(=O)c1c(C)[nH]c(C)c1S(=O)(=O)NCC(=O)NCc1cccc(C)c1`, the survival is inactive: 134%.
On to `O=c1cc(-c2ccc(F)cc2)nc(SCc2nc(-c3ccc(Cl)cc3)no2)[nH]1`, for which the survival is inactive: 74%.
As to `CCOC(=O)c1ccc(CN(Cc2ccc(Br)cc2)S(=O)(=O)c2cccc(Cl)c2C)cc1`, the survival is inactive: 84%.
Regarding `COc1cc(C(=O)NCC(c2ccc(Cl)cc2)N2CCOCC2)cc(OC)c1OC` (stereo not drawn), the survival is inactive: 79%.
On to `Cc1ccc(NC(=O)Cn2nc(Cc3ccncc3)c3ccccc3c2=O)c(Cl)c1`, for which the survival was inactive: 66%.
Turning to `CCc1c(C)nc2nncn2c1NCc1ccc(Cl)cc1`, the survival is inactive: 86%.
Consider `COc1ccccc1CNC(=O)CN1N=C(c2ccccc2)CCC1=O`, for which the survival was inactive: 126%.
Consider `O=C(CN1N=C(c2ccc(Cl)cc2)CCC1=O)NCCc1ccccc1`, for which the survival was inactive: 102%.
In the case of `O=C1C2C(C(=O)N1C13CC4CC(CC(C4)C1)C3)C1C=CC2C12CC2` (stereo not drawn), the survival was inactive: 78%.
Then `CC(CN1CCCCC1)OC(=O)c1ccc2c(c1)OCO2` (stereo not drawn), with inactive: 98%; and `CCCCN(CC)CCNC(=O)c1cc2c(=O)n(CC)c3ccccc3c2s1`, with inactive: 87%; and `CCCCNc1nc2ccccc2c2nc(-c3ccccc3)nn12`, with active: -1%.
On to `Cc1ccccc1NC(=O)c1oc2c(c1C)-c1nn(Cc3cccc(Cl)c3)cc1CC2`, for which the survival is active: 35%.
Regarding `COc1ccc(CNC(=O)CS(=O)Cc2nc(-c3cccc(C)c3)oc2C)cc1` (stereo not drawn), the survival is inactive: 75%.
As for `COc1cc(CNCCSc2nnnn2C)cc(Cl)c1OCc1ccccc1`, the survival was active: 44%.
On to `Fc1ccccc1N1CCN(c2nccn3nc(-c4ccc(Br)cc4)cc23)CC1`, for which the survival is inactive: 72%.
`CCn1c(=O)cc(OCC(=O)N(C)c2cc(Cl)ccc2C)c2ccccc21`: the survival is active: 55%.
Take `O=C(NCCO)c1nc2ccccc2s1`: the survival is inactive: 73%.
Turning to `COC(=O)c1ccccc1NC(=O)N1CCC(N2CCN(Cc3ccc(F)cc3)C(=O)C2=O)CC1`, the survival was inactive: 75%.
With `CC(C)(C)C1CCc2nc(NC(=O)Cc3ccccc3)sc2C1` (stereo not drawn), the survival was active: 19%.
In the case of `O=C(NCc1ccc(F)cc1)C1(c2cccs2)CCOCC1`, the survival was inactive: 102%.
Regarding `COc1cc(Nc2nc3c(S(=O)(=O)c4ccc(C)c(C)c4)nnn3c3ccsc23)cc(OC)c1`, the survival was inactive: 49%.
As to `CCOC(=O)c1c(NC(=O)C2c3ccccc3Oc3ccccc32)sc(C)c1CC`, the survival was active: 24%.
Regarding `CCOc1ccc(CCNC(=O)c2nn(C)c3c2CSc2ccccc2-3)cc1`, the survival was inactive: 75%.
`CCOc1ccccc1CNC(=O)CCCn1ccc2cc(S(=O)(=O)N3CCCC3)ccc21`: the survival was inactive: 95%.
With `Cc1cccc(C(=O)NNc2ncnc3c2cnn3-c2ccc(C)cc2C)c1`, the survival is inactive: 106%.
Consider `O=C(O)c1ccc(NC(=O)c2cc(S(=O)(=O)N3CCCCC3)c(Cl)cc2Cl)cc1`, for which the survival is inactive: 165%.
Then `CC(C)c1ccc(S(=O)(=O)c2cnc(SCC(=O)Nc3ccc4c(c3)OCCO4)[nH]c2=O)cc1`, with inactive: 69%.
Regarding `COc1cccc(C(=O)Nc2nnc(S(=O)(=O)N3CCCC3)s2)c1`, the survival is active: 33%.
Take `Cc1ccc(Cn2cnc3nc4c(cc3c2=O)CC(C)CC4)cc1` (stereo not drawn): the survival is active: 20%.
Consider `CSc1ccc(-c2nc3cccc(C)n3c2Nc2ccc(Cl)cc2)cc1`, for which the survival is inactive: 93%.
With `COc1ccccc1N1C(=O)N(CC(=O)C(C)(C)C)c2ccccc2S1(=O)=O`, the survival is inactive: 86%.
As to `O=C(c1cccs1)N(Cc1nc2sc3c(c2c(=O)[nH]1)CCCC3)C1CCCC1`, the survival is active: 45%.
On to `COc1ccc(NC(=O)CS(=O)CC(=O)NC2CCCc3ccccc32)cc1` (stereo not drawn), for which the survival is inactive: 60%.
With `CN(C)CCNC(=O)c1ccc(-c2nn(C)c(=O)c3ccccc23)cc1`, the survival was inactive: 136%.
For `O=C1CN(C(=O)COc2ccc(Cl)cc2Cl)C(c2ccccc2)c2cc(F)ccc2N1` (stereo not drawn) the value was inactive: 88%; for `CCC(C)NC(=O)CCCc1nnc2n(CC(C)C)c(=O)c3sccc3n12` (stereo not drawn), inactive: 94%; for `CCOc1ccc(NC(=O)c2cc(S(=O)(=O)NC3CCCCCC3)ccc2F)cc1`, inactive: 92%.
For `Cc1ccccc1-c1noc(-c2ccc(NCc3ccco3)c([N+](=O)[O-])c2)n1` the value was inactive: 73%; for `COc1ccc2c(c1)CCc1c(C(=O)Nc3c(C)nn(Cc4ccccc4)c3C)noc1-2`, inactive: 118%; for `CCCNC(=O)CN1C(=O)CSc2ccc(S(=O)(=O)N3CCC(C)CC3)cc21`, inactive: 88%.
Turning to `Cc1ccc(Nc2c(C(C)C)c(C)c(C#N)c3nc4ccccc4n23)cc1`, the survival is inactive: 62%.
For `O=C(CNCc1ccco1)Nc1ccccc1-n1cccc1`, the survival was inactive: 94%.
In the case of `Cc1cccc(CNC(=O)Cn2ccc3cc(S(=O)(=O)N4CCCCCC4)ccc32)c1`, the survival is active: -5%.
On to `COc1cccc(NC(=O)C(Cc2ccccc2)NS(=O)(=O)c2ccc3c(c2)c(=O)n(C)c(=O)n3C)c1` (stereo not drawn), for which the survival was inactive: 79%.
Then `O=C(CN1C(=O)CSc2ccc(S(=O)(=O)N3CCCC3)cc21)Nc1cccc(Cl)c1`, with inactive: 96%; and `COc1ccc2c(Sc3ccc(C)cc3)c(C(=O)NC(C)C)[nH]c2c1`, with inactive: 86%.
On to `CCOc1ccccc1NC(=O)CSc1nccn1-c1cccc(C)c1`, for which the survival is inactive: 86%.
`Cc1ccc(NC(=O)/C=C\C(=O)N(c2ccc(C(C)C)cc2)C(C(=O)NCc2ccco2)c2ccc(F)cc2)cc1` (stereo not drawn): the survival was inactive: 80%.
In the case of `CCOc1ccc(-n2c(=O)c3c(C)c(C)sc3n(CC(=O)NCCc3ccccc3)c2=O)cc1`, the survival was inactive: 84%.
Regarding `CCOc1ccc(C2CC(=O)c3c([nH]c(C(=O)OCC4CCCCC4)c3C)C2)cc1` (stereo not drawn), the survival is inactive: 64%.
For `O=c1oc2ccccc2c(N2CCN(c3ccccc3F)CC2)c1CN1CCCC1`, the survival is inactive: 89%.
Then `COCCCNC(=O)c1nn(-c2ccc(C)cc2)nc1CO`, with inactive: 82%; and `O=C(NC1CCCC1)c1ccc2c(=O)n(Cc3ccccc3)c(SCc3cccc(F)c3)nc2c1`, with inactive: 72%.
For the compound `CCN(CC)c1ccc(NC(=O)CCCN2C(=O)C(c3ccccc3)Oc3cccnc32)c(C)c1` (stereo not drawn), the survival is inactive: 75%.
For `CCCCC1C(=O)NC(=Nc2nc(C)c3ccc(OC)cc3n2)NC1=O` (stereo not drawn) the value was inactive: 79%; for `CCOc1cc(Cl)c(S(=O)(=O)n2ccnc2)cc1Cl`, inactive: 73%; for `Cc1nnc(N2CCC(C(=O)NCCC(C)C)CC2)c2nn(-c3ccc(Cl)cc3)c(C)c12`, inactive: 80%.
`CCC(C(=O)N1CCN(c2ccccc2)CC1)n1c(C)c2cnn(-c3ccccc3)c(=O)c2c1C` (stereo not drawn): the survival was inactive: 72%.
For `Cc1cc(C)n(C(C)CC(=O)Nc2ccc(C)c(N(C)C)c2)n1` (stereo not drawn), the survival was inactive: 71%.
Regarding `C=C(C)CSc1nc(-c2ccccc2)cc(-c2ccc(OC)cc2)c1C#N`, the survival was inactive: 57%.
Turning to `COC(=O)c1ccc(NC(=O)CN2C(=O)CC(c3ccccc3)Sc3ccccc32)cc1` (stereo not drawn), the survival is inactive: 93%.
Then `CC(=O)Nc1ccc(OCC(O)CN2CCN(c3ccc(C)c(Cl)c3)CC2)cc1` (stereo not drawn), with inactive: 76%.
